In the supplement of paper PMC11417369:
± gives the standard deviation of the averaged measurements. The list shows a part of the results.

test system: PfAP2-EXP AP2 domain (GST-tagged); assay: gcPBM binding intensity (ln(normalized median fluorescence intensity)); higher = stronger DNA binding
How it was run: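 Probes on an Agilent 4 × 180k array were primer-extended, double-stranded and 36 bp long, taken from intergenic genomic regions, with negative controls added. GST-tagged P. falciparum DNA-binding domains from E. coli, about 25 μg on average, were applied to the array for 1 h in 1× PBS containing 1% milk, 0.2 mg/ml BSA, 0.5% salmon testes DNA and 0.03% Triton X-100. Binding intensity, obtained after Alexa488 anti-GST antibody detection and a 488 nm scan, is the highest Masliner-normalised natural-log median intensity across replicate spots of either probe orientation.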

| Sequence | gcPBM binding intensity (ln) |
| --- | --- |
| GATTATTTTATAAGTACACACATTTATATATAATAA [CACACA_site2573] | 8.41 ± 0.33 |
| GCATAAATTATCATAACATAAATATAAAAATATAAT [GTGCAC_negctrl_site55] | 8.36 ± 0.37 |
| AATTCATTATATATACGTACATATTTCTGTATAAAA [XGTACX_site6371] | 8.64 ± 0.38 |
| ATTTATTTCACAAAAACATGCAGTTTGAAATTGCCA [TGCATGCA_site910] | 8.49 ± 0.33 |
| TTTCACCATATAAACGTGCACACTACAAAAATATAT [CACACA_site2547] | 9.245 ± 0.007 |
| GGAAAGACAGTTCACAGTACCCAGTAACTCTACGGA [XGTACX_site2009] | 8.32 ± 0.45 |
| ATAATACAATTTATAACACACACACTATAATACATA [CACACA_site8338] | 8.73 ± 0.52 |
| AAATAATAAATTATAACACACATATATATATATATA [CACACA_site4045] | 10 ± 0.47 |
| TTCATGCTTATATGTGCACACACAAAAGAAAAGAAA [CACACA_site1656] | 8.95 ± 0.16 |
| AAATCAAAAACGTTTACACACATTCTTATTTAAATA [CACACA_site790] | 8.74 ± 0.62 |
| TACAGAAATTTATATATATATATATATATATATATA [XGTACX_negctrl_site209] | 9.95 ± 0.62 |
| TACATATATTTTTTATGTACTTACTTGTGTGTTTAT [XGTACX_site5126] | 8.52 ± 0.38 |
| TGAGACATGAATGCAAGTACAAAAAGGAGAACAAAA [XGTACX_site6183] | 9.14 ± 0.41 |
| AAAAAAAAAAAAAAAAGTACACACTTTTGCCTACAT [XGTACX_site6583] | 8.74 ± 0.12 |
| AAATTATATATAATAAATAATTTCTTTTTCTAAAAG [CACACA_negctrl_site8] | 7.76 ± 0.45 |
| TTTTATAATTTCAAAGGATTCTTTAATATTATAAAT [CACACA_negctrl_site1812] | 7.97 ± 0.53 |
| AATAATTGCTAAAGGTGTACAATACGTATATAAGAA [XGTACX_site4910] | 9.32 ± 0.44 |
| TTATATTTTTTTTGTAGTACATTATAGAATACACAC [XGTACX_site969] | 8.68 ± 0.33 |
| TTAATAACAAAATAAACACACATATATAAATACACA [CACACA_site6849] | 8.75 ± 0.38 |

| Sequence | gcPBM binding intensity (ln) |
| --- | --- |
| TAAATTCTGTTTAAAAGTACAAATAATATTGTGCCT [XGTACX_site7805] | 8.14 ± 0.3 |
| TTTATTAAAACAAAATGTACACACATATAATTTAAT [XGTACX_site1637] | 8.38 ± 0.32 |
| AAATGTTGAAATGATACACACATATATATATATATA [CACACA_site2517] | 10.3 ± 0.32 |
| TGAAAGTGTATTAAAGTGCATATTATTTTATCTACC [GTGCAC_site9969] | 8.59 ± 0.23 |
| TTAATCTTCATAAAATGTACAGAAGATTGAATATTC [XGTACX_site6213] | 8.46 ± 0.54 |
| ATATTTTTTTTCATTTGTACACATAAAATTATATAG [XGTACX_site8260] | 8.81 ± 0.36 |
| AAAATACATATATATATATATAATATTGTTGTTAAA [GTGCAC_negctrl_site519] | 8.21 ± 0.39 |
| ATAATATTTTATAATTGTACTTTTTATAAATATAAA [XGTACX_site1940] | 8.3 ± 0.22 |
| CATATTTACATTAAGTGTACTTATGAATATATATAC [XGTACX_site7962] | 8.42 ± 0.4 |
| TAAATAAATCCACATACACACACGACGCTAGTATAT [CACACA_site1060] | 8.32 ± 0.38 |
| TTTTTATTTTTAGTAGTGCATTAATCATATGGTCAT [GTGCAC_site9879] | 8.69 ± 0.17 |
| GATAGATAATATTTTAGTACATAAACAATTAAATAT [XGTACX_site4125] | 8.53 ± 0.32 |
| AATATTTTATTTTTTCTCATTAAAAATTTTTTTTTT [CACACA_negctrl_site364] | 8.46 ± 0.45 |
| CAAAAGAAGGTAAACACACACACACCCATACAAAAA [CACACA_site3765] | 8.77 ± 0.47 |
| ATTATTCGTTTTAAATGTACTCATATAAACGATAAA [XGTACX_site7866] | 8.52 ± 0.3 |
| TTATGAAAAAAATACTGTACACAATATGACGAAAGT [XGTACX_site2283] | 9.07 ± 0.39 |
| TTTTAAATAAATCATGCATGCACATATAATTATATT [TGCATGCA_site151] | 9.94 ± 0.33 |
| TATACGCATATTTTTACACACATATTTTTTCATATA [CACACA_site2546] | 8.83 ± 0.47 |
| TATCTCATTTGGAATTGTACTAACAGATACTTGTTT [XGTACX_site2672] | 8.4 ± 0.44 |

| Sequence | gcPBM binding intensity (ln) |
| --- | --- |
| ATTCAATAATTGTTTTTTTTCTTTTTGTTTTTGTTT [GTGCAC_negctrl_site563] | 8.44 ± 0.53 |
| TATATATAATATATATGTACATATGTATAATATTTA [XGTACX_site4400] | 8.29 ± 0.3 |
| AATATTACGTCTGGACGTACAAATCTTTTTCGTGTC [XGTACX_site6644] | 8.42 ± 0.17 |
| AAATTATTGAAATACGCATGTGTTTTTTTTTTTTTT [TGCATGCA_site391] | 8.51 ± 0.18 |
| GAAATATTTTGTTGTGCATGCGACATTAAATAAAAA [TGCATGCA_site331] | 9.45 ± 0.18 |
| ATATAAAGGTTTATTAGTACACATTAGAATACTTTT [XGTACX_site4492] | 8.24 ± 0.26 |
| ACATTTTTTTTTTTTTTTTTTTTCTTACATCATGCA [CACACA_negctrl_site1413] | 8.41 ± 0.38 |
| TTTTACTAGATATATACACACATTATACCTATAGAT [CACACA_site7530] | 8.44 ± 0.45 |
| CATATTAGGACAAAGTGTACATATATATATATATAT [XGTACX_site1172] | 10.3 ± 0.27 |
| AATATACACATTGTGAAATAACAAAAAAGGCAAAAA [CACACA_negctrl_site1014] | 8.97 ± 0.54 |
| CCTATTTATATATACACACACATATATAAATAAATA [CACACA_site2991] | 8.48 ± 0.37 |
| TATATATATGTATGATGTACATATATGCATATATAT [XGTACX_site3399] | 8.54 ± 0.23 |
| TTAATTAAATATTATACACACAAAAAAATAATTTTA [CACACA_site96] | 8.43 ± 0.48 |
| AATAAAAAGATATTCTCCTTGTTCCTTTTTTTTAAA [CACACA_negctrl_site1147] | 8.59 ± 0.5 |
| ATATATATTCATAATACACACATTCTGTAGCATTAT [CACACA_site2067] | 8.53 ± 0.35 |
| ATAGTATCTGGTAGCTGTACGAATGGTAGAGAGTAG [XGTACX_site2548] | 9.27 ± 0.33 |
| ATATTTTTTTTCTTCACACACATGAATTATATATAA [CACACA_site3216] | 8.87 ± 0.43 |
| ATATATATATTAAAGGTGCACAAATAAATATATACA [GTGCAC_site9532] | 9.54 ± 0.26 |
